The test system of the assay is MIWI (PIWIL1) piRISC loaded with L1MC piRNA (30 nt). Kind of assay: pre-steady-state target cleavage rate (min^-1); MIWI and MILI are mouse PIWI proteins and EfPiwi is from a freshwater sponge; tags in brackets are library labels; higher = faster piRNA-guided slicing of the target. The settings on record: guide: L1MC piRNA 5'p-UAACUAAAUACUAUGCAAGCUGUAGGUCCU
Put shortly:
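Sequencing of uncleaved targets, normalised to depth and to weakly complementary targets, was the readout of this Cleave-'n-Seq assay. A transcribed, DNA-blocked target RNA library (0.1 nM) was mixed with 1 nM active affinity-purified piRISC carrying one synthetic guide, with or without 500 nM GTSF1 partner protein, in HEPES–potassium acetate buffer at 33 °C for 0–8 or 0–960 min. Three trials were pooled, k3 was capped at 0.0001 min^-1, and a burst-and-steady-state fit gave the pre-steady-state cleavage rate.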

Where [1] appears, read: auxiliary factor: 500 nM mouse GTSF1.
The mark [2] stands for this setting: auxiliary factor: none (no GTSF1).

± gives the standard deviation. The list shows a part of the results, in another mix than the full data.

For UCCUGGAUCAGCAUGCUUAGUAUUUAGUUA, the “pre-steady-state target cleavage rate” value under setting [1] amounted to 0.234 ± 0.02 and the “pre-steady-state target cleavage rate” value under setting [2] amounted to 0.00661 ± 0.0025.

For UGGACCUACAGCUUGCAUAGUAUAAUGUUA, the “pre-steady-state target cleavage rate” value was found to be 0.347 ± 0.034 under setting [1] and 0.0246 ± 0.0048 under setting [2].

Take UCCUGGUACAGCUUGCAUAGUAAUUAGUUA: the “pre-steady-state target cleavage rate” value by setting is: under setting [1], 0.708 ± 0.077; under setting [2], 0.0199 ± 0.0041.

For the sequence UGGAGCUACAGCUUGCAUAGAAUUUAGUUA, the “pre-steady-state target cleavage rate” value runs as follows: under setting [1], 0.432 ± 0.023; under setting [2], 0.0258 ± 0.0064.

Turning to UCCACCUACAGCUUGCAUAGUAUUUAGUGA, the “pre-steady-state target cleavage rate” value by setting is: under setting [1], 0.465 ± 0.08; under setting [2], 0.0254 ± 0.006.

Consider AGGACCUACAGCUUGCAUUGUUUUUAGUUA, for which the “pre-steady-state target cleavage rate” value reads like this: under setting [1], 0.126 ± 0.015; under setting [2], 0.011 ± 0.0021.

Take UGGACCUACAGCUUGCAUACUAUUUAGAAA: the “pre-steady-state target cleavage rate” value came out at 0.113 ± 0.022 under setting [1] and 0.00607 ± 0.0025 under setting [2].

As for UCCUGCUACAGCUUCAUAGUAUUUAGUUA, the “pre-steady-state target cleavage rate” value by setting is: under setting [1], 0.646 ± 0.04; under setting [2], 0.00968 ± 0.0021.

UGGACCUAGACCUUGCAUAGUAUUUAGUUA: the “pre-steady-state target cleavage rate” value is 0.661 ± 0.046 under setting [1] and 0.0184 ± 0.0043 under setting [2].

UCCUCCUACAGGUUGCAUAGUAUUUUGUUA: the “pre-steady-state target cleavage rate” value amounted to 0.633 ± 0.054 under setting [1] and 0.0126 ± 0.0021 under setting [2].

For the sequence UCCACCUACAGCUUGCAUAGUAUUUAGUAUA, the “pre-steady-state target cleavage rate” value was 0.5 ± 0.044 under setting [1] and 0.0157 ± 0.005 under setting [2].

On to AGGAGGAACAGCUUGCAUAGUAUUUACAAA, for which the “pre-steady-state target cleavage rate” value was 0.442 ± 0.073 under setting [1] and 0.00664 ± 0.002 under setting [2].

Take AGGACCUACUCCUUGCAUAGUAUUUAGUUA: the “pre-steady-state target cleavage rate” value by setting is: under setting [1], 1.21 ± 0.036; under setting [2], 0.0563 ± 0.0083.

UCCUGGAACAGCUUGCAUACUAUUUAGUAA: the “pre-steady-state target cleavage rate” value turned out to be 0.167 ± 0.025 under setting [1] and 0.0135 ± 0.0039 under setting [2].

Consider UCGUCCUACAGCUUGCAUAGAAUUUAGUUA, for which the “pre-steady-state target cleavage rate” value reads like this: under setting [1], 0.416 ± 0.024; under setting [2], 0.0191 ± 0.0046.

For the sequence UCCUGGUACAGCUUGCAUAGUAUUUUAGUUA, the “pre-steady-state target cleavage rate” value by setting is: under setting [1], 0.549 ± 0.06; under setting [2], 0.0117 ± 0.0026.

On to UCGACCUACAGCUUGCAUAGUAUUUACUAA, for which the “pre-steady-state target cleavage rate” value under setting [1] was 0.277 ± 0.032 and the “pre-steady-state target cleavage rate” value under setting [2] came out at 0.0116 ± 0.0038.

As to UCCUCCUACUGCUUCCAUAGUAUUUAGUUA, the “pre-steady-state target cleavage rate” value stood at 0.0668 ± 0.013 under setting [1] and 0.00434 ± 0.00091 under setting [2].

On to UCGACCUACAGCUUGCAUAGUAAUUAGUUA, for which the “pre-steady-state target cleavage rate” value amounted to 1.08 ± 0.049 under setting [1] and 0.0469 ± 0.012 under setting [2].

Regarding UCGUCCUACAGCUAGCAUAGUAUUUAGUUA, the “pre-steady-state target cleavage rate” value was found to be 0.705 ± 0.029 under setting [1] and 0.0207 ± 0.0032 under setting [2].

With UCCUGGAUGAGCUUGCAUAGUAUUGUAGUUA, the “pre-steady-state target cleavage rate” value is 0.108 ± 0.019 under setting [1] and 0.0197 ± 0.0052 under setting [2].

Regarding UCCUGCUCCAGCUUGCAUAGUAUUUAGUUA, the “pre-steady-state target cleavage rate” value is, setting by setting: under setting [1], 0.934 ± 0.053; under setting [2], 0.052 ± 0.0079.

Regarding UCCACCUACAGCUUGCAAAGUAUUUACUUA, the “pre-steady-state target cleavage rate” value under setting [1] is 0.351 ± 0.036 and the “pre-steady-state target cleavage rate” value under setting [2] came out at 0.0148 ± 0.0027.

As to UGGAUCCUACAGCUUGCAUAGUAUUUAGUUA, the “pre-steady-state target cleavage rate” value under setting [1] was found to be 1.37 ± 0.071 and the “pre-steady-state target cleavage rate” value under setting [2] was determined as 0.0869 ± 0.014.

Take UCCACCUACAGCUUGCAUAGAAUUUUGUUA: the “pre-steady-state target cleavage rate” value amounted to 0.324 ± 0.048 under setting [1] and 0.0105 ± 0.003 under setting [2].

Turning to UCCUGGAUGAGCUUGGAUAGUAUUAAGUUA, the “pre-steady-state target cleavage rate” value runs as follows: under setting [1], 0.199 ± 0.032; under setting [2], 0.0143 ± 0.0056.

As to UCCUGGAUGAGCUUGCAUAGUAAUUAGAUA, the “pre-steady-state target cleavage rate” value reads like this: under setting [1], 0.136 ± 0.034; under setting [2], 0.00679 ± 0.0036.

With UCCUGGUACAGCUUGCAAAGUAUUUAGUUA, the “pre-steady-state target cleavage rate” value is 0.711 ± 0.046 under setting [1] and 0.0405 ± 0.0074 under setting [2].

Take UCCUCCAACAGCUUGCAUAGUAUUUACUUA: the “pre-steady-state target cleavage rate” value runs as follows: under setting [1], 0.267 ± 0.026; under setting [2], 0.0243 ± 0.0038.

As to UGGACCUACAGCUUGCAUAGUAUAAAGUAA, the “pre-steady-state target cleavage rate” value stood at 0.213 ± 0.028 under setting [1] and 0.00435 ± 0.0024 under setting [2].

On to AGGACCUACUGCUUGCAUUGUAUUUAGUUA, for which the “pre-steady-state target cleavage rate” value under setting [1] amounted to 0.892 ± 0.03 and the “pre-steady-state target cleavage rate” value under setting [2] was 0.0384 ± 0.008.

Consider AGGACCUACAGCAUGCAUAGUAUUUUGUUA, for which the “pre-steady-state target cleavage rate” value under setting [1] came out at 0.928 ± 0.078 and the “pre-steady-state target cleavage rate” value under setting [2] is 0.0308 ± 0.0084.

Consider UCCACCUACAGGUUGCAUAGUAUUUAGAUA, for which the “pre-steady-state target cleavage rate” value was 0.523 ± 0.057 under setting [1] and 0.00947 ± 0.0023 under setting [2].

In the case of UCCUCCUACAGCUUGCAAAGAAUUUAGUUA, the “pre-steady-state target cleavage rate” value is, setting by setting: under setting [1], 0.223 ± 0.029; under setting [2], 0.00777 ± 0.0035.

For UGGACGUACAGCUUGCAUAGUUUUUAGUUA, the “pre-steady-state target cleavage rate” value stood at 0.35 ± 0.015 under setting [1] and 0.0389 ± 0.0097 under setting [2].

UGGACCUACAGCUUGCUUAGUAUAUAGUUA: the “pre-steady-state target cleavage rate” value came to 0.842 ± 0.063 under setting [1] and 0.0175 ± 0.0052 under setting [2].

Regarding UCGACCUACAGCUUGCAUAGUCAUUUAGUUA, the “pre-steady-state target cleavage rate” value runs as follows: under setting [1], 0.14 ± 0.044; under setting [2], 0.00403 ± 0.0035.

As for UCCUCCUACAGCUUGCAUAGUAUUUAGUAUA, the “pre-steady-state target cleavage rate” value is, setting by setting: under setting [1], 0.68 ± 0.03; under setting [2], 0.0115 ± 0.0035.

On to UCCUGGAUCAGCUAGCAUAGUAUUUACUUA, for which the “pre-steady-state target cleavage rate” value came out at 0.391 ± 0.026 under setting [1] and 0.009 ± 0.0021 under setting [2].

On to UCCUGGAUGUGCUUGCUUAGUAUUAAGUUA, for which the “pre-steady-state target cleavage rate” value by setting is: under setting [1], 0.00968 ± 0.0036; under setting [2], 0.00433 ± 0.0023.

On to UCGACCUAUAGCUUGCAUAGUAUUUAGUUA, for which the “pre-steady-state target cleavage rate” value under setting [1] turned out to be 1.04 ± 0.055 and the “pre-steady-state target cleavage rate” value under setting [2] was 0.0703 ± 0.014.

For the sequence UCGACCAACAGCUUGCAAAGUAUUUAGUUA, the “pre-steady-state target cleavage rate” value worked out at 1.29 ± 0.043 under setting [1] and 0.0448 ± 0.01 under setting [2].

As to UCCUGGAUGAGCUUGCAUAAUAUUUAGUUA, the “pre-steady-state target cleavage rate” value under setting [1] was found to be 0.382 ± 0.042 and the “pre-steady-state target cleavage rate” value under setting [2] was 0.0246 ± 0.0064.

For the sequence UGGACCUACAGCUUGCCUAGUAUUUAGUUA, the “pre-steady-state target cleavage rate” value turned out to be 1.16 ± 0.069 under setting [1] and 0.0353 ± 0.006 under setting [2].

For the sequence UGGUACCUACAGCUUGCAUAGUAUUUAGUUA, the “pre-steady-state target cleavage rate” value under setting [1] came out at 0.945 ± 0.17 and the “pre-steady-state target cleavage rate” value under setting [2] stood at 0.117 ± 0.034.

Consider UCCUCCUACAGCUUGCAUACAAUUUAGUUA, for which the “pre-steady-state target cleavage rate” value runs as follows: under setting [1], 0.0256 ± 0.0087; under setting [2], 0.00388 ± 0.0026.

Take UCCACCUACAGCUACCAUAGUAUUUAGUUA: the “pre-steady-state target cleavage rate” value reads like this: under setting [1], 0.404 ± 0.046; under setting [2], 0.00206 ± 0.002.

With UCGACGAACAGCUUGCAUAGUAUUUUCAAA, the “pre-steady-state target cleavage rate” value is, setting by setting: under setting [1], 0.324 ± 0.038; under setting [2], 0.00414 ± 0.0023.

On to UCCUGGUACAGCAUGCAUAGUAUUUACUUA, for which the “pre-steady-state target cleavage rate” value runs as follows: under setting [1], 0.166 ± 0.038; under setting [2], 0.019 ± 0.0049.

Take UCCUGGUACAGCUUGUCAUAGUAUUUAGUUA: the “pre-steady-state target cleavage rate” value amounted to 0.201 ± 0.02 under setting [1] and 0.00457 ± 0.0026 under setting [2].

Consider UCGACCUACAGCUUGGAUAGUAAUUAGUUA, for which the “pre-steady-state target cleavage rate” value reads like this: under setting [1], 0.777 ± 0.035; under setting [2], 0.0256 ± 0.0059.

With UCCUCCAACAGGUUGCAUAGUAUUUAGUUA, the “pre-steady-state target cleavage rate” value was 1.15 ± 0.048 under setting [1] and 0.0305 ± 0.0065 under setting [2].

As for UCCUGGUACAGCUGGCAUAGUAUUUAGUUA, the “pre-steady-state target cleavage rate” value reads like this: under setting [1], 0.643 ± 0.037; under setting [2], 0.0205 ± 0.0049.

With AGGACCUUCAGGUUGCAUAGUAUUUAGUUA, the “pre-steady-state target cleavage rate” value under setting [1] is 1.14 ± 0.083 and the “pre-steady-state target cleavage rate” value under setting [2] worked out at 0.0517 ± 0.009.

With UCCACCUACAGCUUGGAUAGUUUUUAGUUA, the “pre-steady-state target cleavage rate” value turned out to be 0.277 ± 0.022 under setting [1] and 0.0183 ± 0.0036 under setting [2].

For UCCUGCUACAGACUUGCAUAGUAUUUAGUUA, the “pre-steady-state target cleavage rate” value runs as follows: under setting [1], 0.402 ± 0.028; under setting [2], 0.0238 ± 0.004.

As for UCCUGGUACACCUUGCAUAGUUUUUAGUUA, the “pre-steady-state target cleavage rate” value was 0.0764 ± 0.027 under setting [1] and 0.0132 ± 0.0038 under setting [2].

UCGUCCUACAGGUUGCAUAGUAUUUAGUUA: the “pre-steady-state target cleavage rate” value is, setting by setting: under setting [1], 1.06 ± 0.044; under setting [2], 0.0288 ± 0.005.

Regarding “UCCUGGAUGUGCUUGCAUAGUAUUUAGUUC [g2:g20:cont:t1C]”, the “pre-steady-state target cleavage rate” value came to 0.254 ± 0.018 under setting [1] and 0.0341 ± 0.008 under setting [2].

Turning to UCCUGCUACAGCUUGCAUGGUAUUUAGUUA, the “pre-steady-state target cleavage rate” value under setting [1] worked out at 1.2 ± 0.1 and the “pre-steady-state target cleavage rate” value under setting [2] amounted to 0.0413 ± 0.0095.

For the origin of these results see the supplement of paper PMC10338343.
